# Test results from the supplement of paper PMC8728848.
# The other results are listed elsewhere or left out.
# What was measured:
# Test in all cases: glycan array binding signal (z-score within array); higher = stronger binding
# Conditions in all cases: glycan notation: IUPAC condensed, linker removed
# [1] = target: Gal(b1-3)GlcNAc(b1-2)Man(a1-3)[Gal(b1-3)GlcNAc(b1-2)Man(a1-6)]Man(b1-4)GlcNAc(b1-4)GlcNAc
# In short: (§1)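 Arrays were curated from the Consortium for Functional Glycomics database, 3228 in total, and kept only where the protein sequence was available. Binding is expressed as a within-array Z-score. This score was averaged across arrays of the same protein sequence at different concentrations or buffers and across linkers, and negative values can be read as non-binding.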
# [2] = target: Gal(b1-3)GlcNAc(b1-2)Man(a1-3)[Gal(b1-3)GlcNAc(b1-2)Man(a1-6)]Man(b1-4)GlcNAc(b1-4)[Fuc(a1-6)]GlcNAc
# In short: as §1
# [3] = target: Gal(b1-3)GlcNAc(b1-2)Man(a1-3)[GlcNAc(b1-4)][Gal(b1-3)GlcNAc(b1-2)Man(a1-6)]Man(b1-4)GlcNAc(b1-4)GlcNAc
# In short: as §1
# [4] = target: Gal(b1-3)GlcNAc(b1-2)[Gal(b1-3)GlcNAc(b1-6)]Man(a1-6)[Gal(b1-3)GlcNAc(b1-2)Man(a1-3)]Man(b1-4)GlcNAc(b1-4)GlcNAc
# In short: as §1
# [5] = target: Gal(b1-3)GlcNAc(b1-3)Gal(b1-3)GlcNAc
# In short: as §1
# [6] = target: Gal(b1-3)GlcNAc(b1-3)Gal(b1-4)Glc
# In short: as §1
# [7] = target: Gal(b1-3)GlcNAc(b1-3)Gal(b1-4)GlcNAc
# In short: as §1
# [8] = target: Gal(b1-3)GlcNAc(b1-3)Gal(b1-4)GlcNAc(b1-2)Man(a1-3)[Gal(b1-3)GlcNAc(b1-3)Gal(b1-4)GlcNAc(b1-2)Man(a1-6)]Man(b1-4)GlcNAc(b1-4)GlcNAc
# In short: as §1
# [9] = target: Gal(b1-3)GlcNAc(b1-3)Gal(b1-4)GlcNAc(b1-2)[Gal(b1-3)GlcNAc(b1-3)Gal(b1-4)GlcNAc(b1-6)]Man(a1-6)[Gal(b1-3)GlcNAc(b1-3)Gal(b1-4)GlcNAc(b1-2)Man(a1-3)]Man(b1-4)GlcNAc(b1-4)[Fuc(a1-6)]GlcNAc
# In short: as §1
# [10] = target: Gal(b1-3)GlcNAc(b1-3)Gal(b1-4)GlcNAc(b1-3)Gal(b1-4)GlcNAc(b1-2)[Gal(b1-3)GlcNAc(b1-3)Gal(b1-4)GlcNAc(b1-3)Gal(b1-4)GlcNAc(b1-6)]Man(a1-6)[Gal(b1-3)GlcNAc(b1-3)Gal(b1-4)GlcNAc(b1-3)Gal(b1-4)GlcNAc(b1-2)Man(a1-3)]Man(b1-4)GlcNAc(b1-4)[Fuc(a1-6)]GlcNAc
# In short: as §1
# [11] = target: Gal(b1-3)GlcNAc(b1-3)Gal(b1-4)GlcNAc(b1-6)[Gal(b1-3)GlcNAc(b1-3)]Gal(b1-4)Glc
# In short: as §1
# [12] = target: Gal(b1-3)GlcNAc(b1-3)Gal(b1-4)[Fuc(a1-3)]GlcNAc
# In short: as §1
# [13] = target: Gal(b1-3)GlcNAc(b1-3)Gal(b1-4)[Fuc(a1-3)]GlcNAc(b1-6)[Gal(b1-3)GlcNAc(b1-3)]Gal(b1-4)Glc
# In short: as §1
# [14] = target: Gal(b1-3)GlcNAc(b1-3)GalNAc
# In short: as §1
# [15] = target: Gal(b1-3)GlcNAc(b1-6)Gal(b1-4)GlcNAc
# In short: as §1
# [16] = target: Gal(b1-3)GlcNAc(b1-6)GalNAc
# In short: as §1
# [17] = target: Gal(b1-3)GlcNAc(b1-6)[Gal(b1-3)]GalNAc
# In short: as §1
# Gal(b1-3)GlcNAc6S = target: Gal(b1-3)GlcNAc6S
# In short: as §1
# [18] = target: Gal(b1-3)[Fuc(a1-4)]GlcNAc
# In short: as §1
# [19] = target: Gal(b1-3)[Fuc(a1-4)]GlcNAc(b1-2)Man
# In short: as §1
# [20] = target: Gal(b1-3)[Fuc(a1-4)]GlcNAc(b1-2)Man(a1-3)[Gal(b1-3)[Fuc(a1-4)]GlcNAc(b1-2)Man(a1-6)]Man(b1-4)GlcNAc(b1-4)[Fuc(a1-6)]GlcNAc
# In short: as §1
# [21] = target: Gal(b1-3)[Fuc(a1-4)]GlcNAc(b1-3)Gal(b1-3)[Fuc(a1-4)]GlcNAc
# In short: as §1
binder,measurement,setting,value
"Clec2 (Mus musculus), Q9JL99 (protein) MQDEDGYITLNIKPRKQALSSAEPASSWWRVMALVLLISSMGLVVGLVALGIMSVTQQKYLLAEKENLSATLQQLAKKFCQELIRQSEIKTKSTFEHKCSPCATKWRYHGDSCYGFFRRNLTWEESKQYCTEQNATLVKTASQSTLDYIAERITSVRWIGLSRQNSKKDWMWEDSSVLRKNGINLSGNTEENMNCAYLHNGKIHPASCKERHYLICERNAGMTRVDQLL",glycan array binding signal (z-score),[1],0.586
same,glycan array binding signal (z-score),[2],-0.411
same,glycan array binding signal (z-score),[3],0.239
same,glycan array binding signal (z-score),[4],-0.221
same,glycan array binding signal (z-score),[5],-0.763
same,glycan array binding signal (z-score),[6],0.433
same,glycan array binding signal (z-score),[7],-0.539
same,glycan array binding signal (z-score),[8],-0.412
same,glycan array binding signal (z-score),[9],0.532
same,glycan array binding signal (z-score),[10],0.461
same,glycan array binding signal (z-score),[11],-0.864
same,glycan array binding signal (z-score),[12],-0.144
same,glycan array binding signal (z-score),[13],-0.993
same,glycan array binding signal (z-score),[14],-0.491
same,glycan array binding signal (z-score),[15],-0.516
same,glycan array binding signal (z-score),[16],-0.97
same,glycan array binding signal (z-score),[17],-0.405
same,glycan array binding signal (z-score),Gal(b1-3)GlcNAc6S,0.428
same,glycan array binding signal (z-score),[18],-0.27
same,glycan array binding signal (z-score),[19],3.5
same,glycan array binding signal (z-score),[20],0.491
same,glycan array binding signal (z-score),[21],-0.485
